Measured values reported in paper PMC12136788.
The list shows a part of the results.

T1: UNK ZnF1-3 (human, UniProt Q9C0B0 31-174)
T1 sequence: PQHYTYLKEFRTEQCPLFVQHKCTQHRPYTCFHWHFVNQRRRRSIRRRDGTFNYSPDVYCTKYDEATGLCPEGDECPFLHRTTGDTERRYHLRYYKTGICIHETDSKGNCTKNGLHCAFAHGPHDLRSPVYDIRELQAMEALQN

B1: chr2:152658766:152658767:-_ENSG00000162980_ENST00000295087|hu_hu|FALSE|FALSE (ssRNA)
RNA: GGGAGUUCUACAGUCCGACGAUCACUCUGAAAUUCACUUUAACUGCUUGACAUAUAAUUUAAUACUUAAAAAUAAUAUAGCUAAGUUGUUUAAUAGUAUUUAUAGAAUGCUACUUUUCUGGGUAGACAUGUUUCACAAAACAGCAACAGAGGAUUGAGCAUCA
B2: chr4:99997899:99997900:-_ENSG00000197894_ENST00000296412|hu_mus|FALSE|FALSE (ssRNA)
RNA: GGGAGUUCUACAGUCCGACGAUCAGGCUCCACCUUGGCAGUGUUCACAGCAGCCCCGUAGCCAGUUGAAAUACCACAGCCGAGAAGGCAGACUUUAUCCAAAGGGGCCGAAGGAUCGAUUUUAGCAACAGAGAUGUCAGCCACCAACAGAGGAUUGAGCAUCA
B3: chr2:164332853:164332854:+_ENSMUSG00000017721_ENSMUST00000103101|mus_hu|FALSE|FALSE (ssRNA)
RNA: GGGAGUUCUACAGUCCGACGAUCAUAGCACACGGCCACCACAGUGCACGUGAGGCAGAUCACGUUGUAGGGCAUGCUGAAGUCCGGUGUCGGCAGGUUCACCAGCAGCGGCUCCGUGUAGAGCCGCACAAAGUAGUUAGAGCCCAACAGAGGAUUGAGCAUCA
B4: chr2:48026839:48026840:+_ENSG00000116062_ENST00000540021|hu_hu|hu_hu_hu_mus_False|28_28 (ssRNA)
RNA: GGGAGUUCUACAGUCCGACGAUCAUAGUGAGCCACUAGCGUCCUAAAUCUGGAACAGUGGCGGUCAUCCGAAAACUGGCCGAUGAAAAACUUGCCCAGUGAAGUGUCAACAAAGCAAACACCAUACACACGAGUGUGACCAGACAACAGAGGAUUGAGCAUCA
B5: chr14:76815493:76815494:+_ENSMUSG00000022010_ENSMUST00000110888|mus_mus|FALSE|FALSE (ssRNA)
RNA: GGGAGUUCUACAGUCCGACGAUCGCGCCGGCUGCUCGUGCCUUCGAGGGCUUCUUUGGCCAACUCCGGAGCCAGCUCAACCCCCUCCUCCCGCGGCGACGGCCGCUGCAAAAGCCCCUCCGCUCGUCCUGCACCGAGGCAGCGCAACAGAGGAUUGAGCAUCA
B6: chr12:77883889:77883890:+_ENSMUSG00000090258_ENSMUST00000041262|mus_mus|motif|central (ssRNA)
RNA: GGGAGUUCUACAGUCCGACGAUCGAAGAGCAGUCGGGUGCUCUUACCCACUGAGCCAUCUCACCAGCCCUAGGCUUGCUCGGUUUUAAAGCAAGCCAACACAGUUACAAGAGAACCAUGGGAGGCUUAGAACAGCAGAGUCAUCAACAGAGGAUUGAGCAUCA
B7: chr12:42180722:42180723:-_ENSMUSG00000036295_ENSMUST00000043884|mus_hu|mus_mus_mus_hu_True|8_48 (ssRNA)
RNA: GGGAGUUCUACAGUCCGACGAUCCUGUAGGAGAAGAAUCUGUGUGUUAGCUGGCAAUCUGGCUGGGAAAGUUAAAAGACCUAAAUCAUUACAGUCCACUGUAGAUGCUUCCAUAUAAAUGGAUCUGGGGGUAAACCAAGGCCUCAACAGAGGAUUGAGCAUCA
B8: chr18:42401725:42401726:-_ENSMUSG00000024493_ENSMUST00000097590|mus_hu|FALSE|FALSE (ssRNA)
RNA: GGGAGUUCUACAGUCCGACGAUCAGGACGAACCCAACAAUUUGUCUGCCCAAACAUGGUCUCAGGUCUGAGAGUAGCAGCCACCAAGAAAAUAUUUUUACCUUUCAGGCCACUUAAUUUAGAUGGGUAUGGCUCAAGCACCUUCAACAGAGGAUUGAGCAUCA
B9: 155570381_155570501_6417_3pUTR_ENSG00000184863_ENST00000401878|human|control|control (ssRNA)
RNA: GGGAGUUCUACAGUCCGACGAUCAUAAAAAUCGAAUAUACACACAAACACAUCAACAACUGUGGAACUGUAUCCAUUAAACUUUGAUAAGACAACACAAAGAACUAAUAGCUAAGAUGUGGCUGAGUUGAAAGCACUUCCAAUCAACAGAGGAUUGAGCAUCA
B10: 156646888_156647008_241_CDS_ENSG00000132688_ENST00000368223|human|control|control (ssRNA)
RNA: GGGAGUUCUACAGUCCGACGAUCGGCAUGCGCCCGCCAGGAGGUGUCCGCGGAUUGUGCCCGGAGCCCCCCGAGCUCCGCGCUGAGCAGCUCAUUCUGCUCCUCCAGCGCCUUGACCCGGGCCAGGUAGGCCUCCAGGCGCCGCAACAGAGGAUUGAGCAUCA
B11: chr22:42033747:42033748:+_ENSG00000196419_ENST00000405878|hu_mus|FALSE|FALSE (ssRNA)
RNA: GGGAGUUCUACAGUCCGACGAUCCAGGUCUUCCAGCUUGCUUGACUCCUCGAAGUGAACCCCAAGGUCCUCGUCCUCAGCGGUGGUGAUGAUGUCCCUGUAGAACACGGAUACAUCAAAGCCUCCUGGCUUCUUCAGAUGCAUCAACAGAGGAUUGAGCAUCA
B12: chr4:57889662:57889663:+_ENSG00000047315_ENST00000314595|hu_hu|FALSE|FALSE (ssRNA)
RNA: GGGAGUUCUACAGUCCGACGAUCAUUGAGAGUUACCAUAACCUGAUCCACAAUGCCCGUCUCGCUAGUUCUGAGAAAAGUGCUACAGUCUCUCUUGGUAUAGCGUCUAUUGGUGCUCUCCAAUUCAUCUUCAUUUUCAGGCAACAACAGAGGAUUGAGCAUCA
B13: chr17:73519777:73519778:+_ENSG00000182173_ENST00000333213|hu_hu|FALSE|FALSE (ssRNA)
RNA: GGGAGUUCUACAGUCCGACGAUCUUUGCCAGGGUUAUUCUUUCGGAAUGUGGCCACAGCGUCGGCCUGGUAAACAUCAAAGAUGAUUUCCAAGCCCCCAGACUUCUCCAACAGCCGGGCACCUCCAUCAGGAAGGUGUGUUGUCAACAGAGGAUUGAGCAUCA
B14: chr8:74858975:74858976:-_ENSG00000154582_ENST00000284811|hu_mus|hu_hu_hu_mus_True|1_68 (ssRNA)
RNA: GGGAGUUCUACAGUCCGACGAUCGACCUUGUAGGUAAAAUACAUGCACACUUUUGAUAGCACAUGUGAAGGUAUCUCUCUAAAAUUGACCUCGUUGGUUUCAUUCUCAGCAAACUGACCUGGACCACUCAACAUAGCUUUUAUCAACAGAGGAUUGAGCAUCA
B15: chr4:87735950:87735951:+_ENSG00000163629_ENST00000511467|hu_mus|FALSE|FALSE (ssRNA)
RNA: GGGAGUUCUACAGUCCGACGAUCUAGACUCAGUGUGUCUUUGUAACAACGUCCACUAUGAUCAAAUGCUGUCUCCAGCCCUAAGACCUGCUGGUUCAGUUAGUGAAAAAGGAGUUUUAAUGACCAUCAGUGGUUGAAGUGGCUCAACAGAGGAUUGAGCAUCA
B16: chr7:141438946:141438947:+_ENSG00000106028_ENST00000265304|hu_mus|hu_hu_hu_mus_True|8_38 (ssRNA)
RNA: GGGAGUUCUACAGUCCGACGAUCGACGAAAUACCUGUAACACAGGUCUUCGAAACAUGGCUUCUGUUUUUCUUACAACCUAAUCUUUAGGCUUUUCCUGACGAUCUGAAAGAAAAGAGAAAAAUGAGCAGGGGAUCAACUACACAACAGAGGAUUGAGCAUCA
B17: chrX:160370135:160370136:+_ENSMUSG00000031367_ENSMUST00000069041|mus_mus|FALSE|FALSE (ssRNA)
RNA: GGGAGUUCUACAGUCCGACGAUCAAUGAAGCAGCUUAGCAAAACAGUAAUACUGACAAGACAUCAUCUUACACCAUUAGCUAACAUGGACAUGAGAGGCAGUGACCAUCUACAGUGUGAAAUGCCACAAGAAGUCAUCAGCAACAACAGAGGAUUGAGCAUCA
B18: chr2:155483576:155483577:-_ENSMUSG00000038324_ENSMUST00000041059|mus_mus|FALSE|FALSE (ssRNA)
RNA: GGGAGUUCUACAGUCCGACGAUCCUGAGCAUUUUUGGCAAGAAGCGUGUGUUUGUCGUCAUUCCCCGUGUCCAUCUCUGAAAUGGUGACAGCCAGGAUCCUGCAGAAGUUAGCAAGCUGCUGCUGAUCGAAAUUGGAUACUAACAACAGAGGAUUGAGCAUCA
B19: chr9:108469239:108469240:-_ENSMUSG00000070283_ENSMUST00000074208|mus_mus|FALSE|FALSE (ssRNA)
RNA: GGGAGUUCUACAGUCCGACGAUCCAGCCGGUCGACGUGCCGACAGAGCGGCGCAGGUCGCGUUCGGAAAAGGCAGCGAAAUCCUAGAGCAGUAGCCAUGGCUGCAACGGCGCUUAACGACCCGGUCGUAGGGACAGAGUUGUCCAACAGAGGAUUGAGCAUCA
B20: chr16:94651144:94651145:+_ENSMUSG00000040785_ENSMUST00000117648|mus_hu|mus_mus_mus_hu_True|8_68 (ssRNA)
RNA: GGGAGUUCUACAGUCCGACGAUCAUUUUCUUGAAUCAAGUGGCGAAUAACAUAGUCCACUGCUUCAUGGACAAAAUUUCUGCUAGAAAAACAGGUUGUAUAGUCUUCUGUGCUCAAAACUUUCCAAGAGAGCAGCUCUUUGAGCAACAGAGGAUUGAGCAUCA
B21: chr5:40767622:40767623:-_ENSG00000132356_ENST00000397128|hu_mus|hu_hu_hu_mus_False|48_58 (ssRNA)
RNA: GGGAGUUCUACAGUCCGACGAUCAUCUUUUAUUGCGGCCCUCUUCAUGGGAUCCACCUGCAGCAUAUGUUUCAAAAGGCUAAUCACAGAAGGAUUUAAGUACUGAGGGGUAUAAAAGAUCCCAUCACAUAUCUUCUUAAAAAGCAACAGAGGAUUGAGCAUCA
B22: chr11:77336104:77336105:-_ENSG00000074201_ENST00000525064|hu_mus|hu_hu_hu_mus_False|68_68 (ssRNA)
RNA: GGGAGUUCUACAGUCCGACGAUCCUCACACAUUGCUGUGAACAUCGCCUCCAAUGCUGACUUAUCACUAGGCACAAAUCGAAAUUCAGAAAUGGGUUCAACAUCAUCAUUGUCUUCCUCAUCUUCAUCAGAGAGAGGUUCUUUCAACAGAGGAUUGAGCAUCA

target: T1, UNK ZnF1-3; test: nsRBNS (natural sequence RNA bind-n-seq); RBNS binding buffer (assumed for nsRBNS): 25 mM Tris pH 7.5, 150 mM KCl, 3 mM MgCl2, 0.01% Triton X-100, 500 ug/ml BSA, 20 U/ml SUPERase-In, 4 C; UNK is unkempt and MSI1 is Musashi-1; names of the RNAs are library labels; protein concentration not given here; high values mean tight binding

| Binder | binding signal |
| --- | --- |
| B1 | 1.68 enrichment R |
| B2 | 1.83 enrichment R |
| B3 | 0.521 enrichment R |
| B4 | 1.46 enrichment R |
| B5 | 0.639 enrichment R |
| B6 | 1.31 enrichment R |
| B7 | 1.29 enrichment R |
| B8 | 1.22 enrichment R |
| B9 | 1.27 enrichment R |
| B10 | 0.479 enrichment R |
| B11 | 0.845 enrichment R |
| B12 | 0.974 enrichment R |
| B13 | 0.858 enrichment R |
| B14 | 0.85 enrichment R |
| B15 | 0.628 enrichment R |
| B16 | 0.754 enrichment R |
| B17 | 1.52 enrichment R |
| B18 | 1.28 enrichment R |
| B19 | 0.576 enrichment R |
| B20 | 0.833 enrichment R |
| B21 | 1.39 enrichment R |
| B22 | 0.926 enrichment R |
